Laboratory results as given in publication PMC4336329 (PLoS ONE, 2015).
Hit rate of the full screen: of about 310,000 compounds, about 14,000 (4.5%) showed an effect of 50% or more. The effect is printed as a negative number. The list shows a part of the results.

What follows are molecules tested against human ether-à-go-go-related gene (hERG) potassium channel (human, UniProt Q12809) (assay: primary screen, population patch clamp on CHO cells stably expressing hERG).
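Note: peak tail current of the secondary pulse compared with the same well before compound.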

Chain of human ether-à-go-go-related gene (hERG) potassium channel (Q12809 whole entry, looked up): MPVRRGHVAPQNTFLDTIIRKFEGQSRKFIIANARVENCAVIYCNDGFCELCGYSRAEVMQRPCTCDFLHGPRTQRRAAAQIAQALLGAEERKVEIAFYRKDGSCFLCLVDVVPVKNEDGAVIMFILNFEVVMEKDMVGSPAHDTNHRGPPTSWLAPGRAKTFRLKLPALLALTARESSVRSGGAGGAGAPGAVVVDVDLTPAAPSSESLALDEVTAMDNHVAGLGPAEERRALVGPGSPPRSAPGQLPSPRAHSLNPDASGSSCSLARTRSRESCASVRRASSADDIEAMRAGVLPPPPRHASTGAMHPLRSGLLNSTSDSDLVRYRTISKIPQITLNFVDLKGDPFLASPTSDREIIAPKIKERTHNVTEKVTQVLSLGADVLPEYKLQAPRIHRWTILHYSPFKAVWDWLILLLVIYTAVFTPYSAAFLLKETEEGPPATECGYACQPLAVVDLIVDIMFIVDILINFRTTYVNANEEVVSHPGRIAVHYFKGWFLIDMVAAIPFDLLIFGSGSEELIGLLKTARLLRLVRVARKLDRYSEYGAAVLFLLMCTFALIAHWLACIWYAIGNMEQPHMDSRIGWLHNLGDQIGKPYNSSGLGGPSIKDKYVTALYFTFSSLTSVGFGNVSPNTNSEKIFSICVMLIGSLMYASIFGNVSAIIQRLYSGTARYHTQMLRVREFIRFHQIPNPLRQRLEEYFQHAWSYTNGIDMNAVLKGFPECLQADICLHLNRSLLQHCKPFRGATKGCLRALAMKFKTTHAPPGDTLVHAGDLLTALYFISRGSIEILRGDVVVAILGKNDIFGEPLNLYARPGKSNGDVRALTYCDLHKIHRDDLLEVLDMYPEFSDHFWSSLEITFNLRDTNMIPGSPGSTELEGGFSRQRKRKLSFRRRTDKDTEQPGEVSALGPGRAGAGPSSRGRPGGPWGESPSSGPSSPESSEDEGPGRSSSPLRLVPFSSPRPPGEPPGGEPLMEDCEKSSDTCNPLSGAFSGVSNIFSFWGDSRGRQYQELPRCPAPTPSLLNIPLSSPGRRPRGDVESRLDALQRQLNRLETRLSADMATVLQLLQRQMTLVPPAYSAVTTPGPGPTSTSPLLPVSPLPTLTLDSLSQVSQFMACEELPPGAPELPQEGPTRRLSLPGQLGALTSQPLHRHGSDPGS

Going from `CCOC(=O)c1cc(-c2ccccc2)sc1NC(=O)COC(=O)c1cccc(S(N)(=O)=O)c1` to `NS(=O)(=O)c1ccc(CCNC(=O)C2CCCN2C(=O)OCc2ccccc2)cc1` (stereo not drawn), the “hERG current change (%, negative = inhibition) at 10uM” value rises from 10.2% to 18.6%.

Going from `CCc1cccc2c(C(=O)COC(=O)c3cnc(C)cn3)c[nH]c12` to `Cc1ccnc2nc(C(=O)OCCOc3ccc(Cl)cc3)nn12`, the “hERG current change (%, negative = inhibition) at 10uM” value falls from 2.87% to -56.2%.

First: CCOC(=O)CC(N)c1ccc2c(c1)OCO2.Cl (stereo not drawn)
Second: CC(C)NS(=O)(=O)c1ccc(OCC(=O)Nc2ccc3c(c2)OCO3)c(Cl)c1
The “hERG current change (%, negative = inhibition) at 10uM” value of the first is higher: 7.08% for the first, -1.68% for the second.

Going from `CC(CCc1ccccc1)NC(=O)COC(=O)c1ccc(F)cc1.CN(C)C=O` (stereo not drawn) to `CN(C)CCOC(=O)c1cn(Cc2ccccc2)c2ccccc12.Cl`, the “hERG current change (%, negative = inhibition) at 10uM” value falls from 15.8% to -59.1%.

Going from `CCN(CC)c1ccc(C=Nc2ccc(C)cc2)c(O)c1` to `CCOC(=O)C1CN(S(=O)(=O)c2ccc(C)cc2)c2cc(S(=O)(=O)CC)ccc2O1` (stereo not drawn), the “hERG current change (%, negative = inhibition) at 10uM” value falls from 13.6% to -41%.

First: Cc1cccc(-n2c(C)n[nH]c2=S)c1
Second: Cc1ccccc1Nc1n[nH]c(C)c1[N+](=O)[O-]
The “hERG current change (%, negative = inhibition) at 10uM” value of the first is higher: 6.43% for the first, 0.936% for the second.

First: N#CN1CCC(NS(=O)(=O)c2ccc(C(F)(F)F)cc2)C1 (stereo not drawn)
Second: O=C(Nc1ccc2c(c1)C(=O)OC2)c1ccc(C(F)(F)F)cc1
The “hERG current change (%, negative = inhibition) at 10uM” value of the first is lower: -5.56% for the first, 17.3% for the second.

First: O=c1[nH]c(/C=C\c2ccc(O)cc2)nc(O)c1[N+](=O)[O-]
Second: Cc1ccc(SCc2nc3ccccc3[nH]2)cc1
The “hERG current change (%, negative = inhibition) at 10uM” value of the first is higher: 6.29% for the first, -15.4% for the second.

Going from `CC(O)C(NS(=O)(=O)c1ccc(Cl)cc1)C(=O)OCC(=O)Nc1cccnc1Cl` (stereo not drawn) to `N/C(CCS(=O)(=O)c1ccc(Cl)cc1)=N\OC(=O)c1ccccc1C(F)(F)F`, the “hERG current change (%, negative = inhibition) at 10uM” value falls from 11.2% to -27.8%.

Compared with `COc1ccc(NS(=O)(=O)c2c(F)cc(F)c(Cl)c2F)cc1S(=O)(=O)N1CCCCC1`, `COc1ccc(NS(=O)(=O)c2ccc(C)c(NC(=O)c3ccc(C)c(S(=O)(=O)N4CCOCC4)c3)c2)cc1` is higher in “hERG current change (%, negative = inhibition) at 10uM” value: -12.1% for the first, 4.49% for the second.

Compared with `CCOC(=O)/C(C#N)=N\Nc1ccc(S(=O)(=O)Nc2nc(C)cc(C)n2)cc1`, `CCOC(=O)c1c(C)[nH]c(C)c1S(=O)(=O)N1CCC(c2ccccc2)C1` (stereo not drawn) is lower in “hERG current change (%, negative = inhibition) at 10uM” value: 9.21% for the first, -0.09% for the second.

Compared with `CCOc1ccccc1C1CC(=O)NC(SCC)=C1C#N` (stereo not drawn), `COc1ccccc1C1CC(c2cccs2)=NN1C(=O)CCC(=O)O` (stereo not drawn) is higher in “hERG current change (%, negative = inhibition) at 10uM” value: 2.15% for the first, 16% for the second.

First: COc1ccc(NC(=O)c2sccc2C)cn1
Second: Cc1ccc(NC(=O)c2cccs2)cc1NC(=O)c1ccco1
The “hERG current change (%, negative = inhibition) at 10uM” value of the first is higher: 3.9% for the first, -2.23% for the second.

Going from `Nc1nc(C(F)(F)F)cc(=O)[nH]1` to `Cc1cc(SCC(=O)NCCCN2CCCC2=O)nc2ccccc12`, the “hERG current change (%, negative = inhibition) at 10uM” value falls from 11% to 5.37%.

Compared with `O=c1[nH]ncc2c3ccccc3n(Cc3cccc(Cl)c3)c12`, `COc1ccc(Cn2c(=O)[nH]c3cc(C(=O)N4CCN(Cc5ccccc5)CC4)ccc3c2=O)cc1` is lower in “hERG current change (%, negative = inhibition) at 10uM” value: 24.3% for the first, 1.77% for the second.

Compared with `O=C(O)C1CC(O)CN1S(=O)(=O)c1ccc2ccccc2c1` (stereo not drawn), `Cc1ccc(S(=O)(=O)N2CCSC2c2ccco2)cc1` (stereo not drawn) is lower in “hERG current change (%, negative = inhibition) at 10uM” value: 2.25% for the first, -7.66% for the second.

Going from `Cc1ccc(C(=O)N2CCN(Cc3ccc4c(c3)OCO4)CC2)cc1[N+](=O)[O-]` to `O=C(C1=C[C@H](c2ccccc2)C[C@H](OCCCCO)O1)N1CCN(Cc2ccc3c(c2)OCO3)CC1`, the “hERG current change (%, negative = inhibition) at 10uM” value falls from -22.7% to -41.8%.

Going from `NS(=O)(=O)c1ccc(CCNC(=O)C2CCN(S(=O)(=O)c3ccc(Br)s3)CC2)cc1` to `COc1ccc(/C=C/C(=O)O)cc1S(=O)(=O)N1CCC(Cc2ccccc2)CC1`, the “hERG current change (%, negative = inhibition) at 10uM” value rises from -2.76% to 7.55%.

Going from `CCOC(=O)c1c(N)n(CCN2CCOCC2)c2nc3ccccc3nc12` to `Nc1c(C(=O)OC2CCCCC2)c2nc3ccccc3nc2n1CC1CCCO1` (stereo not drawn), the “hERG current change (%, negative = inhibition) at 10uM” value falls from -39.2% to -63.7%.

First: CCOc1cc(N2CCOCC2)c(OCC)cc1NCC(=O)N1CCN(Cc2ccccc2)CC1.Cl
Second: CC(=O)N1CCN(c2ccccc2NC(=O)COc2ccccc2C)CC1
The “hERG current change (%, negative = inhibition) at 10uM” value of the first is lower: -24.5% for the first, -14% for the second.

First: Cc1cc(NC(=O)c2cc([N+](=O)[O-])cc([N+](=O)[O-])c2)no1
Second: Cc1ccc(C)c(N(CC(=O)NC2CCCC2)C(=O)CCC(=O)Nc2cc(C)on2)c1
The “hERG current change (%, negative = inhibition) at 10uM” value of the first is higher: 11.7% for the first, 4.94% for the second.

Compared with `Cc1noc(C)c1COc1ccc(C(=O)OC(C)C(=O)Nc2ccc(S(=O)(=O)N3CCOCC3)cc2)cc1` (stereo not drawn), `CCOc1ccc(C(=O)N2CCN(c3cccc(Cl)c3)CC2)cc1` is lower in “hERG current change (%, negative = inhibition) at 10uM” value: 10.9% for the first, -73.7% for the second.

Going from `O=C1CNC(=O)/C1=C\N1CCN(C(c2ccccc2)c2ccccc2)CC1` to `CCN1C(=O)CC(N2CCN(C(c3ccccc3)c3ccccc3)CC2)C1=O` (stereo not drawn), the “hERG current change (%, negative = inhibition) at 10uM” value falls from 5.73% to -5.86%.

Compared with `O=C(c1ccc(Cl)cc1)N1CCC(c2nc(-c3cccs3)no2)CC1`, `Cc1cc(C)cc(NC(=O)C2CCN(C(=O)c3cccs3)CC2)c1` is higher in “hERG current change (%, negative = inhibition) at 10uM” value: -26.3% for the first, -12.4% for the second.

Going from `CC(C)OCC1Cn2c(nc3c2c(=O)n(C)c(=O)n3C)O1` (stereo not drawn) to `CC1CCCCN1C(=O)Cn1cc(C=C2C(=O)N(C)C(=O)N(C)C2=O)c2ccccc21` (stereo not drawn), the “hERG current change (%, negative = inhibition) at 10uM” value falls from 16.8% to 1.08%.

Going from `CCCC(=O)N(C)c1nnc(-c2ccc(OC)cc2)s1` to `COc1ccc(-c2cn3c(C)c(C(=O)N4CCc5ccccc5C4)sc3n2)cc1`, the “hERG current change (%, negative = inhibition) at 10uM” value falls from 11.3% to -31.9%.

First: Cc1cccc2cc(C#N)c(NCCCn3ccnc3)nc12
Second: Cc1ccccc1S(=O)(=O)Nc1ncnc2sccc12
The “hERG current change (%, negative = inhibition) at 10uM” value of the first is lower: -46.9% for the first, 0.813% for the second.

Compared with `O=C(O)CC1=C(O)C(=O)N(c2ccccc2)C1c1ccccc1` (stereo not drawn), `CN1C(=O)/C(=C/c2ccccc2OCc2ccccc2F)NC1=S` is lower in “hERG current change (%, negative = inhibition) at 10uM” value: 17.4% for the first, 16.1% for the second.

First: COc1cccc(-c2nnc(SCC(N)=O)n2-c2ccc(Cl)cc2)c1
Second: Cn1c(COc2ccc(Br)cc2)nnc1SC1CCc2ccccc2C1=O (stereo not drawn)
The “hERG current change (%, negative = inhibition) at 10uM” value of the first is higher: -9.7% for the first, -26.6% for the second.

Going from `O=C(Nc1ccc(NC(=O)c2ccccc2Cl)cc1)c1cccnc1` to `Cc1cc(C)nc(OC(C(=O)O)C(OCCc2ccccc2)(c2ccccc2)c2ccccc2)n1` (stereo not drawn), the “hERG current change (%, negative = inhibition) at 10uM” value rises from 10.2% to 16.3%.

First: Cc1[nH]c2ccccc2c1/C=C(\C#N)C(=O)NCC1CCCO1 (stereo not drawn)
Second: C/C(N)=C(/C#N)C(=O)CSc1ccccc1F
The “hERG current change (%, negative = inhibition) at 10uM” value of the first is lower: 11.9% for the first, 16.9% for the second.

First: CCOc1ccc(CNCCN2CCCC2)cc1.O=C(O)C(=O)O
Second: CC(=O)c1ccc(N2CCN(C(=O)c3cc4c(s3)CCCC4)CC2)cc1
The “hERG current change (%, negative = inhibition) at 10uM” value of the first is lower: -63.9% for the first, -23.5% for the second.

Going from `COc1ccccc1N1CCN(S(=O)(=O)c2ccc3c(c2)oc(=O)n3C)CC1` to `Cc1cc(N2CCN(Cc3nc(-c4ccc(Cl)cc4)oc3C)CC2)cc(C)n1`, the “hERG current change (%, negative = inhibition) at 10uM” value falls from 26% to -68.8%.

Going from `Cn1nnc(NCc2cc(Br)ccc2OCc2ccccc2F)n1` to `COc1ccc(Br)cc1C1Nc2cccc3cccc(c23)N1`, the “hERG current change (%, negative = inhibition) at 10uM” value rises from -13.2% to 20.2%.

First: C=CCc1ccc(OCCn2cccc2C=O)c(OC)c1
Second: Cc1ccc(/C=C2/C(=O)NC(=O)N(Cc3ccc(F)cc3)C2=O)o1
The “hERG current change (%, negative = inhibition) at 10uM” value of the first is lower: -24.4% for the first, 19.6% for the second.

First: COCCCNC(=O)c1ccc(N(C)S(C)(=O)=O)cc1
Second: COCCOC(=O)c1[nH]c2c(c1C)C(=O)CC(c1ccc(OC)cc1)C2 (stereo not drawn)
The “hERG current change (%, negative = inhibition) at 10uM” value of the first is higher: 11.7% for the first, 3.95% for the second.

Compared with `CCc1cccc(NC(=O)C2CCCN(c3ncnc4c3nc3n4CCCCC3)C2)c1` (stereo not drawn), `Cc1ccc(NCc2nnc(SCCN3CCCCC3)n2CC2CCCO2)cc1Cl` (stereo not drawn) is lower in “hERG current change (%, negative = inhibition) at 10uM” value: -46.4% for the first, -92.4% for the second.

Going from `NC(=O)C1CCN(C(=O)COc2cccc3cccnc23)CC1` to `CCn1cc(CN2CCC(n3nccc3NC(=O)c3cccc(F)c3)CC2)c(C)n1`, the “hERG current change (%, negative = inhibition) at 10uM” value falls from 9.65% to -2.72%.

Compared with `Cc1ccc(C2CC(=O)C(C=NCCN3CCN(C(=S)Nc4ccc(F)cc4)CC3)=C(O)C2)cc1` (stereo not drawn), `C=Cc1ccc(C2=CC(=O)C[C@H](c3ccc(OC)cc3)C2)cc1` is higher in “hERG current change (%, negative = inhibition) at 10uM” value: -58.6% for the first, 16.1% for the second.

Going from `N#Cc1c(N)n(C2CCCCC2)c2nc3ccccc3nc12` to `O=C(O)c1ccn(Cn2cnc3ccccc32)n1`, the “hERG current change (%, negative = inhibition) at 10uM” value falls from 13.6% to 6.64%.

Going from `CC1(C)CC(=O)C(C(C2=C(O)CC(C)(C)CC2=O)c2ccc(Cl)c([N+](=O)[O-])c2)C(=O)C1` (stereo not drawn) to `CCOC(=O)C1=C(C)N=c2s/c(=C3\C(=O)Nc4ccccc43)c(=O)n2C1c1ccc2c(c1)OCO2` (stereo not drawn), the “hERG current change (%, negative = inhibition) at 10uM” value falls from 14.2% to 5.4%.

Going from `O=C(CN1CC[C@@]2(O)CCCC[C@H]2[C@@H]1c1ccc(F)cc1)NCc1ccco1` to `O=C1NC(=S)S/C1=C\c1ccc(SCc2ccco2)o1`, the “hERG current change (%, negative = inhibition) at 10uM” value rises from -15.5% to 0.894%.

Going from `Cc1sc(N)c(C#N)c1C` to `COc1ccc(/C(C)=N/N=C(N)N)c(OC)c1`, the “hERG current change (%, negative = inhibition) at 10uM” value falls from 5.26% to -3.29%.

For `NS(=O)(=O)OCCCCCc1ccccc1`, the “hERG current change (%, negative = inhibition) at 10uM” value was 3.87%.
